Source: the supplement of paper PMC3334620
Whole data set: some 33,000 sequences, median “E-score (-0.5 to 0.5)” near -0.017, cut for the highest 2% near 0.3. The list shows a part of the results.

target: T1, Sut1 (UniProt P53032); assay: PBM E-score (8-mer binding enrichment) (E-score (-0.5 to 0.5)); higher = stronger / more preferred TF binding; most listed sequences are background and not binding sites; conditions: protein concentration: 200 nM; construct: GST-full length
T1 sequence: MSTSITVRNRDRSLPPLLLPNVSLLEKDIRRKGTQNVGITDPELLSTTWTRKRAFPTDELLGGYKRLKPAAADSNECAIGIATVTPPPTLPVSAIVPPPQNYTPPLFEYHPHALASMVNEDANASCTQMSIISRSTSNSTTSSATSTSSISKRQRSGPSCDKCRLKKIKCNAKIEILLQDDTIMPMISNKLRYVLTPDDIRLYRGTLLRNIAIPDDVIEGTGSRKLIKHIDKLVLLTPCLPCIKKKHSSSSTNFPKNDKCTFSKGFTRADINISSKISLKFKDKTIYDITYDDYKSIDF
Summary of the method: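 Yeast transcription factors carrying a GST tag, as full-length proteins or DNA-binding domains, were produced by PURExpress in vitro transcription/translation. About 100-200 nM protein was applied to universal all-10-mer Agilent arrays, double-stranded by primer extension on fresh or once-stripped slides. Bound protein was detected with fluorescent anti-GST, and scans were normalised with masliner. The Universal PBM Analysis Suite gave each ungapped eight-base word, pooled with its reverse complement, an E-score, a modified Wilcoxon-Mann-Whitney statistic.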

Sequence	PBM E-score
AACCGCGC	0.11
GAAGTTCA	0.0798
AACCAGGT	-0.308
ACTTTCGC	0.019
AGGGCCGC	-0.158
ACGCATCC	-0.199
CAGCGTGG	-0.176
CCTTTTGA	0.0755
ACATAACC	0.121
ATTTGGTC	0.0537
AACCAACT	0.116
GTAGAGAC	-0.0714
GCTGTTAC	-0.193
CACTACCA	0.0415
AAGTGTGC	-0.0417
GGTCTAAC	-0.0757
CATGGAGG	-0.335
GCCTGGTA	-0.156
ACCACACG	-0.144
CTAGCGCC	-0.167
AACCCCTT	-0.0441
CGGCTATA	0.0266

Sequence	PBM E-score
AGTGCGCC	-0.179
TCGATTAA	0.206
CTTACCTA	0.0125
GACTCGAC	-0.0914
CAAGCACC	-0.206
CTCCAAAA	-0.0606
AGTTTCTA	0.0689
GCCGAGAA	0.143
CTTTCAGC	0.0684
CCTCGTTA	-0.0601
CGCACTTC	-0.0386
AAATTACA	0.297
CTTATATA	0.334
GTCAAATA	0.143
GCGGCTTA	-0.0978
CAACTAGA	0.0952
AAGATATC	0.0379
GAGTAGGA	0.207
CTATTTGC	0.0258
CAACGTCC	-0.158
AAGATTTG	-0.0896
GATGATGA	0.0751

Sequence	PBM E-score
GTAGCCAC	-0.0913
ATTACTCC	0.318
AAGATTGT	0.123
AACTGCGC	-0.165
AGGGGAAA	-0.0626
AATTGGCG	0.0284
CCGTGACG	-0.0388
CTATGTTA	0.173
CTTCAGAC	-0.00463
CATGTACA	-0.0514
CCGTTTAC	-0.0358
GATTAGAA	0.0478
ATGACCTC	-0.244
AATGGTCT	0.113
AGCATGAA	0.0511
CTCGCATC	-0.077
GGGCAAGA	0.0388
ACTCAGCG	-0.159
GCGTACAA	-0.0821
CACGGCTC	-0.0352
ACTATGCG	0.0167
CGACTAAC	0.102

Sequence	PBM E-score
GAACCCCA	-0.107
ACTTGAAA	0.126
CCCATTCA	-0.0208
ATACAACC	-0.0784
ACCGATGA	0.0542
CGTTTGGC	0.0466
CACGTAGA	-0.054
ATGGCCGC	-0.139
AGGTTGTG	-0.0247
CACATTTA	0.152
CAGAAAGA	0.102
CCGGGTCA	-0.0212
TGAAATCA	0.123
CCTACCAG	-0.282
GCATACTA	-0.0622
CCTAGCTA	-0.269
CCTGGGCG	-0.293
GGAGCTCC	0.221
AACAAGGA	-0.0508
CGAGTGCC	-0.234
